# Results published in PubChem BioAssay AID624296 (National Center for Advancing Translational Sciences (NCATS), 2012).
# Among all 350,000 compounds or so, about 9,900 (2.8%) were called active. Inconclusive means that the source gave no clear call. Such entries were picked first, then a sample of the others. Calls follow the shape of the dose curve; as a rule, active = well fitted activation curve with a large enough effect; inconclusive = small, poorly fitted or top-dose-only effect; inactive = no such curve, though single readings can be large or run the other way. No potency is given beside an inconclusive call; the fits are too rough.
# Experiment: A quantitative high throughput screen for small molecules that induce DNA re-replication in MCF 10a normal breast cells. Also: nearly all actives have a fitted effect of over 50% in size. As to activity, positive = re-replication: % of control where 0% means no effect.
# Details: MCF 10A DNA re-replication, Hoechst nuclear intensity, 48 h; activity, positive = re-replication: at 46.1 µM (top of the series)
# Potency is read from the fitted curve at half-maximal effect; tags tell the direction and shape of the fitted curve.
Compound,Potency,"activity, positive = re-replication"
N#Cc1c(Sc2ncc(C(F)(F)F)cc2Cl)nsc1C/C=N\OCc1ccccc1Br,"inconclusive [activator, single point]",
CCOC(=O)N1CCc2c(sc(NC(=O)CN3CCOCC3)c2C#N)C1,"inconclusive [activator, single point]",
CCc1cccc(CC)c1NC(=S)N1CCn2cccc2C1c1cccnc1 (stereo unspecified),"inconclusive [activator, partial curve, poor fit]",
CCOc1ccc(CCNC(=O)c2ccc3c(=O)n4c(nc3c2)CCCCC4)cc1,"inconclusive [activator, partial curve, poor fit]",
Cc1ccc(-n2c(N)c(C(=O)Nc3c(C)n(C)n(-c4ccccc4)c3=O)c3nc4ccccc4nc32)cc1,,inactive: 0.985%
CCC(=O)N(Cc1cc2cccc(C)c2[nH]c1=O)c1ccccc1OC,,inactive: 2.89%
Cc1ccc(-n2c(C)cc(/C=N/NC(N)=S)c2C)cc1,"inconclusive [activator, single point]",
COc1ccc(C(CNC(=O)/C=C/c2c(Cl)nc3ccccn23)N(C)C)cc1 (stereo unspecified),,inactive: 1.74%
CN(C)C(CNC(=O)c1cccc(S(=O)(=O)N2CCN(c3ccc(F)cc3)CC2)c1)c1ccccc1 (stereo unspecified),"inconclusive [activator, single point]",
C=CCN1C(=O)/C(=C/c2ccc(O)c(OC)c2)S/C1=N/c1nccs1,active: 18.4 µM,
CN(CC(=O)Nc1ccccc1Br)C(=O)CCc1nc2ccccc2c(=O)[nH]1,,inactive: 7.26%
O=C(Cc1ccc(Br)cc1)Nc1ncc([N+](=O)[O-])s1,"inconclusive [activator, single point]",
C=CC[N+]1([C@H]2C[C@H]3[C@@H]4CC[C@H]5C[C@H](O)[C@@H](N6CCOCC6)C[C@]5(C)[C@H]4CC[C@]3(C)[C@H]2OC(C)=O)CCCC1,,inactive: 3.4%
CCOc1cccc(=O)c2c(C)oc(C)c12,"inconclusive [activator, single point]",
C/C(CC(=O)Nc1cccc(Cl)c1Cl)=N\NC(=O)c1ccccc1N,"inconclusive [activator, partial curve, poor fit]",
CC1(C)CC(=O)C2=C(C1)NC(Nc1nc3ccccc3o1)=NC21CCCC1,"inconclusive [activator, single point]",
CCOC(=O)c1c(C)nc2c(c1-c1ccccc1)C(=O)c1ccccc1-2,"inconclusive [activator, single point]",
COc1cc2c(cc1NC(=O)c1cccc(S(=O)(=O)N(C)C)c1)oc1ccccc12,"inconclusive [activator, full curve, poor fit]",
Cc1ccc(C(C[N+](=O)[O-])c2c(N)n(C)c(=O)n(C)c2=O)cc1 (stereo unspecified),active: 23.1 µM,
COc1ccc(C(=O)NCCCN2CCOCC2)cc1OC,,inactive: -0.832%
Cc1c(C(=O)Nc2c(N)nc(SCC(=O)NCC3CCCO3)[nH]c2=O)cccc1[N+](=O)[O-] (stereo unspecified),,inactive: 3.34%
CCCCC(CC)CNC(=O)CN1C(=O)NC2(CCc3ccccc32)C1=O (stereo unspecified),,inactive: -0.307%
CC(=O)NC12CC3CC(C1)CC(C(=O)N1CCN(c4ncccn4)CC1)(C3)C2,,inactive: 4.62%

Compound,Potency,"activity, positive = re-replication"
Nc1ccc(S(=O)(=O)Nc2nccc(/C=C/c3ccc(Cl)cc3Cl)n2)cc1,,inactive: -6.31%
COc1ccccc1NS(=O)(=O)c1ccc2oc(SC(C)C(=O)N3CCNC3=O)nc2c1 (stereo unspecified),,inactive: 2.34%
O=C(Nc1ccccc1N1CCOCC1)C1CCCCN1S(=O)(=O)c1ccccc1 (stereo unspecified),"inconclusive [activator, single point]",
CCN(CC(=O)NC1CCCC1)S(=O)(=O)c1ccc(Br)cc1,,inconclusive: 86.6% [activator]
COc1ccc(OC)c(S(=O)(=O)CC(=O)c2cc3ccc(OC)cc3oc2=O)c1,"inconclusive [activator, single point]",
COc1cc(-c2nnc(SCc3c(F)cccc3Cl)o2)cc(OC)c1OC,"inconclusive [activator, single point]",
C=CCn1c(Cc2ccccc2)nc2c(cnn2-c2ccccc2)c1=O,"inconclusive [activator, single point]",
NC(=O)c1cc(-c2ccccc2)sc1NC(=O)CN1CCCCC1,"inconclusive [activator, single point]",
COc1ccc(/C=N/NC(=O)c2cccnc2)cc1COc1ccc(NC(C)=O)cc1,active: 4.11 µM,
CCCc1cc(=O)n2nc(N3CCC(C(=O)NCc4ccco4)CC3)sc2n1,,inactive: -1.3%
O=C(O)/C=C/C(=O)NC1CCC(CC2CCC(NC(=O)/C=C/C(=O)O)CC2)CC1 (stereo unspecified),"inconclusive [activator, full curve, poor fit]",
CC1CCCN(c2nc3ccsc3c(=O)s2)C1 (stereo unspecified),active: 18.4 µM,
CCCCC(=O)NC(c1ccc(C(C)C)cc1)c1ccc2cccnc2c1O (stereo unspecified),active: 18.4 µM,
CCOC(=O)C1CCN(CC(=O)Nc2ccc(OC)c(Cl)c2)CC1,,inactive: -0.61%
COc1cc2c(cc1OC)C(c1c(Cl)cccc1Cl)NC(=O)C2 (stereo unspecified),,inactive: -1.97%
CCNC(=S)N1CCN(c2nc(CC)nc3sc4c(c23)CCCC4)CC1,"inconclusive [activator, single point]",
Cc1ccc(S(=O)(=O)Nc2ccccc2N2CCCCC2)cc1,active: 16.4 µM,
O=C(CCl)NCCN1C(=O)S/C(=C\c2cccnc2)C1=O,"inconclusive [activator, single point]",
CC(OC(=O)c1cccc(-n2cnnn2)c1)C(=O)Nc1ccc(F)cc1Cl (stereo unspecified),"inconclusive [activator, partial curve, poor fit]",
C=CCNC(=S)Nc1cccc(NC(=S)NCC=C)c1,,inactive: 6.02%
CCSC1=N/C(=C/c2ccsc2)C(=O)N1c1ccccc1,"inconclusive [activator, single point]",
CCC(Sc1nc2n[nH]c(C)c2c(=N)n1-c1cccc(Cl)c1C)C(=O)N(CC)CC (stereo unspecified),,inactive: 15.5%
CC(C)(C)NC(=O)[C@H]1CC[C@H]2[C@@H]3CC[C@H]4NC(=O)C=C[C@]4(C)[C@H]3CC[C@]12C,"inconclusive [activator, partial curve, poor fit]",
